Measurements from the supplement of paper PMC3724861.
Some of the results follow.

system: T1, Caupolican (Caup) homeodomain DNA-binding domain; assay: PBM E-score (8-mer, recovered from the published 9-mer minima) (E-score (dimensionless, -0.5 to 0.5)); Drosophila protein; higher = stronger relative binding preference, active = 0.31 or more
T1 sequence: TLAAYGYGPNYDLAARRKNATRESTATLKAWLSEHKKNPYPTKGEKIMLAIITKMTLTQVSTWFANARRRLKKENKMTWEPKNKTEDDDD
Method: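 Protein binding microarray (PBM): in vitro transcribed/translated Caupolican (Caup) homeodomain DNA-binding domain (residues 214-303) applied at 100 nM to a universal 8-mer PBM array (Agilent AMADID 015681). The 8-mer enrichment score (E-score, range -0.5 to 0.5) was computed, and each 9-mer score is the minimum E-score of its two constituent 8-mers. The E-score is the same for a 9-mer and its reverse complement; 0.31 is the stated binding threshold.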

| Sequence | PBM E-score |
| --- | --- |
| GTAACATA | active: 0.345 |
| CCACTATC | inactive: -0.0271 |
| GTTTGCTA | inactive: 0.12 |
| GTACCCAC | inactive: -0.0396 |
| CGAACTAG | inactive: 0.0457 |
| CGTCTATC | inactive: 0.0194 |
| CAGTTTCA | inactive: -0.0417 |
| CTTGTAGA | inactive: 0.248 |
| GGTTCCGA | inactive: -0.0584 |
| GAACCCTC | inactive: -0.114 |
| CATAGTAC | inactive: 0.145 |
| ATATCCCG | inactive: 0.0584 |
| ATCCGAAG | inactive: -0.0583 |
| AGGCGCAA | inactive: -0.0964 |
| TTCCGCAA | inactive: -0.00932 |
| ATCCCACC | inactive: -0.122 |
| CGCATTTA | inactive: 0.0602 |
| CCCAGAGG | inactive: -0.342 |
| AGACCGCC | inactive: -0.226 |
| ATCACCAA | inactive: 0.0852 |
| CCCGGACG | inactive: -0.211 |

| Sequence | PBM E-score |
| --- | --- |
| TAGGGTCA | inactive: -0.0162 |
| ACATCGAC | inactive: 0.227 |
| AATTTACT | ≥ 0.198 |
| CAACCTTG | inactive: 0.0814 |
| CGGTGGGC | inactive: -0.254 |
| AGCAGTGC | inactive: -0.14 |
| TAGGCGGA | inactive: -0.0109 |
| TTGCGCAA | inactive: -0.00385 |
| AAGTATGT | inactive: 0.245 |
| CTTATTGC | inactive: -0.0488 |
| CAGGCGCA | inactive: -0.181 |
| AATAACAT | active: 0.348 |
| AGAACGTG | inactive: -0.00371 |
| CTCAGATA | inactive: 0.0695 |
| AACTTCGA | inactive: -0.00917 |
| AAATACGG | inactive: 0.0486 |
| TATTCTCA | inactive: 0.0911 |
| CAATGCCG | inactive: -0.166 |
| GATTAGCC | inactive: -0.0031 |
| ATACCAAT | ≥ 0.164 |
| AATTTGCC | inactive: -0.0265 |

| Sequence | PBM E-score |
| --- | --- |
| CTTCGACC | inactive: -0.168 |
| CAGCACGG | inactive: -0.0332 |
| ACGAGTAG | inactive: -0.00334 |
| AACTTATA | inactive: 0.176 |
| ATCAGCGG | inactive: -0.126 |
| CTAAGAAC | inactive: -0.0324 |
| TCTTCGAA | inactive: -0.0617 |
| CACATGAA | inactive: 0.226 |
| ATAAGAAC | inactive: 0.192 |
| GAAGGCTC | inactive: -0.216 |
| CTGACGCA | inactive: -0.241 |
| CCACCGTA | inactive: 0.028 |
| AGGCTCTC | inactive: -0.224 |
| CCCTAGTC | inactive: -0.0495 |
| CTGTGCAA | inactive: 0.131 |
| CCGTGACC | inactive: -0.124 |
| CACACATA | inactive: 0.164 |
| CAGTACTC | inactive: 0.016 |
| GCAGTGAA | inactive: 0.0398 |
